Laboratory results from the RNAGym collection of RNA variant scans (doi:10.1073/pnas.2313332121).
Variants at the background level are over-represented here.

B1: TPR 5TU (parent)
chain: GGAUCUUCUCGAUCUAACAAAAAAGACAAAUCUGCCACAAAGCUUGAGAGCAUCUUCGGAUGCAGAGGCGGCAGCCUUCGGUGGCGCGAUAGCGCCAACGUUCUCAACUAUGACACGCAAAACGCGUGCUCCGUUGAAUGGAGUUUAUCAUG

Variants of: B1
Experiment: polymerase ribozyme fitness, log enrichment relative to wild type (log ratio); higher = more active; in vitro selection for triplet polymerase activity
Procedure, shortened: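 Each subunit of a heterodimeric triplet polymerase ribozyme was mutagenized into a library by PCR, transcribed, and subjected to one round of in vitro selection, run in triplicate. Libraries were annealed with a biotinylated primer, the partner subunit and triplets, incubated frozen at −7 °C, and extended constructs were gel-excised, captured on streptavidin beads and recovered by RT-PCR. Input and output libraries were sequenced on Illumina, keeping genotypes with ≥10 input reads and ≥1 read per output. Fitness is log base 2 of genotype enrichment divided by wild-type enrichment, from inverse-variance-weighted replicate averages.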
For A19G A21C C38A A39C C96U U145G, the “polymerase ribozyme fitness (log ratio)” value was at most -4.2. In the case of A19U A73G U78A G86U U101A A150C, the “polymerase ribozyme fitness (log ratio)” value is reported as at most -4.2. With A19U U44C G74A G92C U102A C125U the “polymerase ribozyme fitness (log ratio)” value was at most -4.2. In the case of A20C C85U U151A, the “polymerase ribozyme fitness (log ratio)” value is reported as at most -4.2. With C18U A49G U61A C69U G92A A107U the “polymerase ribozyme fitness (log ratio)” value was at most -4.2. In the case of C18U A24U C51A A73C G92C A115G, the “polymerase ribozyme fitness (log ratio)” value is reported as at most -4.2. In the case of A19C A26C A37C A60G C95U, the “polymerase ribozyme fitness (log ratio)” value is reported as at most -4.2. With A19U A28G G34A U55A C93A A122G G152U the “polymerase ribozyme fitness (log ratio)” value was at most -4.2. For A19U G42C C79A C116U G126A C132G, the “polymerase ribozyme fitness (log ratio)” value was at most -4.2. In the case of A20C A28U A39G C125A G126C, the “polymerase ribozyme fitness (log ratio)” value is reported as at most -4.2. With A19G C75G C125U U127G the “polymerase ribozyme fitness (log ratio)” value was at most -4.2. With C18U A41C G58A C63A A64C A91C G133A the “polymerase ribozyme fitness (log ratio)” value was at most -4.2. With A19C A37U A49C G68U C95A C149G the “polymerase ribozyme fitness (log ratio)” value was at most -4.2. With A19G G46A G48A C69A C75U U78G C87G the “polymerase ribozyme fitness (log ratio)” value was at most -4.2. For A19U A20C A37G U55A U111A U127G, the “polymerase ribozyme fitness (log ratio)” value was at most -4.2. For A19U A26U G42U G92U, the “polymerase ribozyme fitness (log ratio)” value was at most -4.2. In the case of A19C C35A U61A C96A U144C, the “polymerase ribozyme fitness (log ratio)” value is reported as at most -4.2. In the case of A19C A37C A49U A60C U61G C95U C96A G124U U134A G141C, the “polymerase ribozyme fitness (log ratio)” value is reported as at most -4.2. With A19C A91C the “polymerase ribozyme fitness (log ratio)” value was at most -4.2. For A19U U31A A39G A60U G68C A73G C95U C105A, the “polymerase ribozyme fitness (log ratio)” value was at most -4.2. In the case of A19G G25U U56A G84U A91G A138C G143C, the “polymerase ribozyme fitness (log ratio)” value is reported as at most -4.2. With C18G G83A G92C U109G C149G the “polymerase ribozyme fitness (log ratio)” value was at most -4.2. For A19C C85U A91G A110G A121U, the “polymerase ribozyme fitness (log ratio)” value was at most -4.2. With C18U G46A A52G C108U U111G C118A the “polymerase ribozyme fitness (log ratio)” value was at most -4.2. With C18U G25A C35U A52C G83U G84A G88C C116U the “polymerase ribozyme fitness (log ratio)” value was at most -4.2. With A19G C27U C35A A115U A120G A138C U145A the “polymerase ribozyme fitness (log ratio)” value was at most -4.2. For A20C A28G G59U C85U C96G A121G, the “polymerase ribozyme fitness (log ratio)” value was at most -4.2. With A19C A41C U55A U56A C85A C87G A91U the “polymerase ribozyme fitness (log ratio)” value was at most -4.2. With A19C C69G C72U U78G A119G C125U A137C G140C the “polymerase ribozyme fitness (log ratio)” value was at most -4.2. With A19G A29G G59U A107G U109C C118U G141A the “polymerase ribozyme fitness (log ratio)” value was at most -4.2. For A20C A28U U53C G67U G68C G92A A147C, the “polymerase ribozyme fitness (log ratio)” value was at most -4.2. In the case of C18U A26C U55G G58C C75A U78G U90C A91G C99A, the “polymerase ribozyme fitness (log ratio)” value is reported as at most -4.2. With A19U A21U G59A A60G C75U C87G C93U the “polymerase ribozyme fitness (log ratio)” value was at most -4.2. With C18U G70A G80A C96A G117U the “polymerase ribozyme fitness (log ratio)” value was at most -4.2. In the case of A19C U31C C38A C57A G59A A89G C95G A97G C103G, the “polymerase ribozyme fitness (log ratio)” value is reported as at most -4.2. In the case of A19C A49C C75A U82G U102G C118G G140C, the “polymerase ribozyme fitness (log ratio)” value is reported as at most -4.2. With A20C C63G A64G the “polymerase ribozyme fitness (log ratio)” value was at most -4.2. With C18U A19C A41G U44G A49C G88A A107U U134C G136A U148A the “polymerase ribozyme fitness (log ratio)” value was at most -4.2. In the case of A20C A28G A37G C69U C96A A107U G140U, the “polymerase ribozyme fitness (log ratio)” value is reported as at most -4.2. With A19C A21U C43G G81U G94C A110G the “polymerase ribozyme fitness (log ratio)” value was at most -4.2. With A19C A28U G84A A97C the “polymerase ribozyme fitness (log ratio)” value was at most -4.2. In the case of A19U U31A G50A C75U C93U U151G, the “polymerase ribozyme fitness (log ratio)” value is reported as at most -4.2. In the case of C18U G86C C125U A137C, the “polymerase ribozyme fitness (log ratio)” value is reported as at most -4.2. With A20C A22G C35U G42A C85U G88A C105U A120G the “polymerase ribozyme fitness (log ratio)” value was at most -4.2. In the case of A19U A29U C57U G84A C96G A107U, the “polymerase ribozyme fitness (log ratio)” value is reported as at most -4.2. With A19U C93U C99A G152U the “polymerase ribozyme fitness (log ratio)” value was at most -4.2. With A19C U31C A52C G71C C96G G126U the “polymerase ribozyme fitness (log ratio)” value was at most -4.2. For A19U U56A C85G G100U U146G, the “polymerase ribozyme fitness (log ratio)” value was at most -4.2. For A19G A22U C38U C79U G86U C118U G126A G141C, the “polymerase ribozyme fitness (log ratio)” value was at most -4.2. With A19G C27U A41U G112C G117A A120G G136C the “polymerase ribozyme fitness (log ratio)” value was at most -4.2. With A19U U55G G70A C76A U82A G92C the “polymerase ribozyme fitness (log ratio)” value was at most -4.2. For A19U G25C U55A C57G C79G, the “polymerase ribozyme fitness (log ratio)” value was at most -4.2. For C18U A26C C43U U44G G86C C99U C114U A137U, the “polymerase ribozyme fitness (log ratio)” value was at most -4.2. For A19C A21U U90C C95U C116G C149A, the “polymerase ribozyme fitness (log ratio)” value was at most -4.2. In the case of A20C A52G G74A G84U C87A U90G A107C, the “polymerase ribozyme fitness (log ratio)” value is reported as at most -4.2. In the case of A19C A24G U55C G65A A137G, the “polymerase ribozyme fitness (log ratio)” value is reported as at most -4.2. With C18U A22G C43U U55G G94A C103U U104G A110U the “polymerase ribozyme fitness (log ratio)” value was at most -4.2. In the case of A19C A30G A49U A115U U145A, the “polymerase ribozyme fitness (log ratio)” value is reported as at most -4.2. In the case of A19C A39C C43U G59U A64U G83C C105A C116U U144G, the “polymerase ribozyme fitness (log ratio)” value is reported as at most -4.2. With A20C A40U G86U C87G C105U G141U the “polymerase ribozyme fitness (log ratio)” value was at most -4.2. With A19U G92U G94C G143A U145A the “polymerase ribozyme fitness (log ratio)” value was at most -4.2. With C18U A30G A41C A47C A107U A142G the “polymerase ribozyme fitness (log ratio)” value was at most -4.2. For A20C A23U C27G C87U C95A, the “polymerase ribozyme fitness (log ratio)” value was at most -4.2. With A19G A21U A26C C79U G83C C99A C123U the “polymerase ribozyme fitness (log ratio)” value was at most -4.2. With C18G C54A U56A A73G C96U A106C G124A the “polymerase ribozyme fitness (log ratio)” value was at most -4.2. For A19G A49C C103A C118G G141C A142G, the “polymerase ribozyme fitness (log ratio)” value was at most -4.2. For A19U G58C C87G, the “polymerase ribozyme fitness (log ratio)” value was at most -4.2. With A19U A20C U33A A52G C118G G136A U151A the “polymerase ribozyme fitness (log ratio)” value was at most -4.2. With A20C A91C C95G C96G U148G the “polymerase ribozyme fitness (log ratio)” value was at most -4.2. With A19C C27A G92A G112U A122U G128U U130A C149A the “polymerase ribozyme fitness (log ratio)” value was at most -4.2. In the case of A19U A39C G80A U82G A89G A110C, the “polymerase ribozyme fitness (log ratio)” value is reported as at most -4.2. For A19U U31G G94A A113C G117U, the “polymerase ribozyme fitness (log ratio)” value was at most -4.2. In the case of C18U U31A G48U U55A C85A, the “polymerase ribozyme fitness (log ratio)” value is reported as at most -4.2. With C18U C32U G84U G143A the “polymerase ribozyme fitness (log ratio)” value was at most -4.2. For C18U G46A U53A U77A G80A C85A A98U U102C C132G A138G, the “polymerase ribozyme fitness (log ratio)” value was at most -4.2. In the case of A19U U55A G94A A137U, the “polymerase ribozyme fitness (log ratio)” value is reported as at most -4.2. With A19C A39U A91U C103G C123A U130A U134G the “polymerase ribozyme fitness (log ratio)” value was at most -4.2. With A19C A40C G80C C87A G88C G126U the “polymerase ribozyme fitness (log ratio)” value was at most -4.2. In the case of A19U A28U G42C G74A C85U U148C U151A G152U, the “polymerase ribozyme fitness (log ratio)” value is reported as at most -4.2. For A19G G74A C76U, the “polymerase ribozyme fitness (log ratio)” value was at most -4.2. For A19C A47C G50A G70C G84C A150G, the “polymerase ribozyme fitness (log ratio)” value was at most -4.2. With A19C U45G C75U G92U U127G the “polymerase ribozyme fitness (log ratio)” value was at most -4.2. With C18U A24C G48A C51U U61A C85U the “polymerase ribozyme fitness (log ratio)” value was at most -4.2.
